Assay results taken from the supplement of paper PMC8728848.
The other results are listed elsewhere or left out.

How the values were obtained:
Assay in all cases: glycan array binding signal (z-score within array); higher = stronger binding
Conditions in all cases: glycan notation: IUPAC condensed, linker removed
[1] = biological target: Fuc(a1-2)[Gal(a1-3)]Gal(b1-4)GlcNAc(b1-2)Man(a1-3)[Fuc(a1-2)[Gal(a1-3)]Gal(b1-4)GlcNAc(b1-2)Man(a1-6)]Man(b1-4)GlcNAc(b1-4)GlcNAc
Procedure, shortened: (§1)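 Columns mapping to the same glycan were averaged after glycan names were converted to IUPAC-condensed notation. The data come from 3228 arrays in the Consortium for Functional Glycomics database, limited to those with an available protein sequence. Binding is reported as a within-array Z-score averaged across arrays of one protein sequence and across linkers.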

[2] = biological target: Fuc(a1-2)[Gal(a1-3)]Gal(b1-4)GlcNAc(b1-2)Man(a1-3)[Fuc(a1-2)[Gal(a1-3)]Gal(b1-4)GlcNAc(b1-2)Man(a1-6)]Man(b1-4)GlcNAc(b1-4)[Fuc(a1-6)]GlcNAc
Procedure, shortened: as §1

[3] = biological target: Fuc(a1-2)[Gal(a1-3)]Gal(b1-4)GlcNAc(b1-3)GalNAc
Procedure, shortened: as §1

[4] = biological target: Fuc(a1-2)[Gal(a1-3)]Gal(b1-4)GlcNAc(b1-3)[Fuc(a1-2)[Gal(a1-3)]Gal(b1-4)GlcNAc(b1-6)]GalNAc
Procedure, shortened: as §1

[5] = biological target: Fuc(a1-2)[Gal(a1-3)]Gal(b1-4)GlcNAc(b1-6)GalNAc
Procedure, shortened: as §1

[6] = biological target: Fuc(a1-2)[Gal(a1-3)]Gal(b1-4)[Fuc(a1-3)]Glc
Procedure, shortened: as §1

[7] = biological target: Fuc(a1-2)[Gal(a1-3)]Gal(b1-4)[Fuc(a1-3)]GlcNAc
Procedure, shortened: as §1

[8] = biological target: Fuc(a1-2)[Gal(a1-3)]Gal(b1-4)[Fuc(a1-3)]GlcNAc(b1-3)GalNAc
Procedure, shortened: as §1

[9] = biological target: Fuc(a1-2)[Gal(a1-4)]Gal(b1-4)GlcNAc
Procedure, shortened: as §1

[10] = biological target: Fuc(a1-2)[GalNAc(a1-3)]Gal
Procedure, shortened: as §1

[11] = biological target: Fuc(a1-2)[GalNAc(a1-3)]Gal(b1-3)GalNAc(a1-3)[Fuc(a1-2)]Gal(b1-4)GlcNAc
Procedure, shortened: as §1

[12] = biological target: Fuc(a1-2)[GalNAc(a1-3)]Gal(b1-3)GalNAc(b1-3)Gal(a1-4)Gal(b1-4)Glc
Procedure, shortened: as §1

[13] = biological target: Fuc(a1-2)[GalNAc(a1-3)]Gal(b1-3)GlcNAc
Procedure, shortened: as §1

[14] = biological target: Fuc(a1-2)[GalNAc(a1-3)]Gal(b1-3)GlcNAc(b1-2)Man(a1-3)[Fuc(a1-2)[GalNAc(a1-3)]Gal(b1-3)GlcNAc(b1-2)Man(a1-6)]Man(b1-4)GlcNAc(b1-4)GlcNAc
Procedure, shortened: as §1

[15] = biological target: Fuc(a1-2)[GalNAc(a1-3)]Gal(b1-3)GlcNAc(b1-2)Man(a1-3)[Fuc(a1-2)[GalNAc(a1-3)]Gal(b1-3)GlcNAc(b1-2)Man(a1-6)]Man(b1-4)GlcNAc(b1-4)[Fuc(a1-6)]GlcNAc
Procedure, shortened: as §1

[16] = biological target: Fuc(a1-2)[GalNAc(a1-3)]Gal(b1-3)GlcNAc(b1-3)GalNAc
Procedure, shortened: as §1

[17] = biological target: Fuc(a1-2)[GalNAc(a1-3)]Gal(b1-3)GlcNAc(b1-6)GalNAc
Procedure, shortened: as §1

[18] = biological target: Fuc(a1-2)[GalNAc(a1-3)]Gal(b1-4)Glc
Procedure, shortened: as §1

[19] = biological target: Fuc(a1-2)[GalNAc(a1-3)]Gal(b1-4)GlcNAc
Procedure, shortened: as §1

[20] = biological target: Fuc(a1-2)[GalNAc(a1-3)]Gal(b1-4)GlcNAc(b1-2)Man
Procedure, shortened: as §1

[21] = biological target: Fuc(a1-2)[GalNAc(a1-3)]Gal(b1-4)GlcNAc(b1-2)Man(a1-3)[Fuc(a1-2)[GalNAc(a1-3)]Gal(b1-4)GlcNAc(b1-2)Man(a1-6)]Man(b1-4)GlcNAc(b1-4)GlcNAc
Procedure, shortened: as §1

[22] = biological target: Fuc(a1-2)[GalNAc(a1-3)]Gal(b1-4)GlcNAc(b1-2)Man(a1-3)[Fuc(a1-2)[GalNAc(a1-3)]Gal(b1-4)GlcNAc(b1-2)Man(a1-6)]Man(b1-4)GlcNAc(b1-4)[Fuc(a1-6)]GlcNAc
Procedure, shortened: as §1

[23] = biological target: Fuc(a1-2)[GalNAc(a1-3)]Gal(b1-4)GlcNAc(b1-3)Gal(b1-4)GlcNAc
Procedure, shortened: as §1

[24] = biological target: Fuc(a1-2)[GalNAc(a1-3)]Gal(b1-4)GlcNAc(b1-3)Gal(b1-4)GlcNAc(b1-3)Gal(b1-4)GlcNAc
Procedure, shortened: as §1

[25] = biological target: Fuc(a1-2)[GalNAc(a1-3)]Gal(b1-4)GlcNAc(b1-3)GalNAc
Procedure, shortened: as §1

[26] = biological target: Fuc(a1-2)[GalNAc(a1-3)]Gal(b1-4)GlcNAc(b1-3)[Fuc(a1-2)[GalNAc(a1-3)]Gal(b1-4)GlcNAc(b1-6)]GalNAc
Procedure, shortened: as §1

[27] = biological target: Fuc(a1-2)[GalNAc(a1-3)]Gal(b1-4)GlcNAc(b1-6)GalNAc
Procedure, shortened: as §1

[28] = biological target: Fuc(a1-2)[GalNAc(a1-3)]Gal(b1-4)[Fuc(a1-3)]GlcNAc
Procedure, shortened: as §1

[29] = biological target: Fuc(a1-2)[GalNAc(a1-3)]Gal(b1-4)[Fuc(a1-3)]GlcNAc(b1-3)GalNAc
Procedure, shortened: as §1

[30] = biological target: Fuc(a1-2)[GalNAc(a1-4)]Gal(b1-4)GlcNAc
Procedure, shortened: as §1

[31] = biological target: Fuc(a1-2)[GalNAc(b1-3)]Gal
Procedure, shortened: as §1

[32] = biological target: Fuc(a1-3)GlcNAc
Procedure, shortened: as §1

[33] = biological target: Fuc(a1-3)[Gal(b1-4)]Glc6S
Procedure, shortened: as §1

[34] = biological target: Fuc(a1-3)[Gal(b1-4)]GlcNAc
Procedure, shortened: as §1

[35] = biological target: Fuc(a1-3)[Gal(b1-4)]GlcNAc(b1-2)Man
Procedure, shortened: as §1

[36] = biological target: Fuc(a1-3)[Gal(b1-4)]GlcNAc(b1-2)Man(a1-3)[Fuc(a1-3)[Gal(b1-4)]GlcNAc(b1-2)Man(a1-6)]Man(b1-4)GlcNAc(b1-4)GlcNAc
Procedure, shortened: as §1

[37] = biological target: Fuc(a1-3)[Gal(b1-4)]GlcNAc(b1-2)Man(a1-3)[Fuc(a1-3)[Gal(b1-4)]GlcNAc(b1-2)Man(a1-6)]Man(b1-4)GlcNAc(b1-4)[Fuc(a1-6)]GlcNAc
Procedure, shortened: as §1

[38] = biological target: Fuc(a1-3)[Gal(b1-4)]GlcNAc(b1-3)Gal(b1-3)[Fuc(a1-4)]GlcNAc
Procedure, shortened: as §1

[39] = biological target: Fuc(a1-3)[Gal(b1-4)]GlcNAc(b1-3)Gal(b1-4)[Fuc(a1-3)]GlcNAc
Procedure, shortened: as §1

[40] = biological target: Fuc(a1-3)[Gal(b1-4)]GlcNAc(b1-3)Gal(b1-4)[Fuc(a1-3)]GlcNAc(b1-3)Gal(b1-4)[Fuc(a1-3)]GlcNAc
Procedure, shortened: as §1

[41] = biological target: Fuc(a1-3)[Gal(b1-4)]GlcNAc(b1-3)GalNAc
Procedure, shortened: as §1

[42] = biological target: Fuc(a1-3)[Gal(b1-4)]GlcNAc(b1-6)GalNAc
Procedure, shortened: as §1

[43] = biological target: Fuc(a1-3)[Gal(b1-4)]GlcNAc(b1-6)[Gal(b1-3)GlcNAc(b1-3)]Gal(b1-4)Glc
Procedure, shortened: as §1

[44] = biological target: Fuc(a1-3)[Gal(b1-4)]GlcNAc6S
Procedure, shortened: as §1

[45] = biological target: Fuc(a1-3)[Gal3S(b1-4)]Glc
Procedure, shortened: as §1

[46] = biological target: Fuc(a1-3)[Gal3S(b1-4)]GlcNAc
Procedure, shortened: as §1

[47] = biological target: Fuc(a1-3)[Gal3S(b1-4)]GlcNAc6S
Procedure, shortened: as §1

[48] = biological target: Fuc(a1-3)[GalNAc(b1-4)]GlcNAc
Procedure, shortened: as §1

[49] = biological target: Fuc(a1-3)[GalNAc(b1-4)]GlcNAc6S
Procedure, shortened: as §1

[50] = biological target: Fuc(a1-4)GlcNAc
Procedure, shortened: as §1

[51] = biological target: Fuc(b1-3)GlcNAc
Procedure, shortened: as §1

[52] = biological target: Gal(a1-2)Gal
Procedure, shortened: as §1

[53] = biological target: Gal(a1-3)Gal
Procedure, shortened: as §1

[54] = biological target: Gal(a1-3)Gal(b1-3)GlcNAc
Procedure, shortened: as §1

[55] = biological target: Gal(a1-3)Gal(b1-3)GlcNAc(b1-2)Man
Procedure, shortened: as §1

[56] = biological target: Gal(a1-3)Gal(b1-3)GlcNAc(b1-2)Man(a1-3)[Gal(a1-3)Gal(b1-3)GlcNAc(b1-2)Man(a1-6)]Man(b1-4)GlcNAc(b1-4)GlcNAc
Procedure, shortened: as §1

[57] = biological target: Gal(a1-3)Gal(b1-3)GlcNAc(b1-3)GalNAc
Procedure, shortened: as §1

[58] = biological target: Gal(a1-3)Gal(b1-3)GlcNAc(b1-6)GalNAc
Procedure, shortened: as §1

[59] = biological target: Gal(a1-3)Gal(b1-3)[Fuc(a1-4)]GlcNAc(b1-2)Man(a1-3)[Gal(a1-3)Gal(b1-3)[Fuc(a1-4)]GlcNAc(b1-2)Man(a1-6)]Man(b1-4)GlcNAc(b1-4)GlcNAc
Procedure, shortened: as §1

[60] = biological target: Gal(a1-3)Gal(b1-4)Glc
Procedure, shortened: as §1

B1: MUB40 (Lactobacillus reuteri) (peptide)
chain: CTAEGIKKFEGDGYELFKDNFPAGEKFDNDDTNDQFYTVIF
- glycan array binding signal (z-score) [1]: -0.784
- glycan array binding signal (z-score) [2]: -0.055
- glycan array binding signal (z-score) [3]: -0.292
- glycan array binding signal (z-score) [4]: -0.138
- glycan array binding signal (z-score) [5]: -0.526
- glycan array binding signal (z-score) [6]: -0.198
- glycan array binding signal (z-score) [7]: -0.391
- glycan array binding signal (z-score) [8]: 0.519
- glycan array binding signal (z-score) [9]: -0.239
- glycan array binding signal (z-score) [10]: -0.085
- glycan array binding signal (z-score) [11]: 0.008
- glycan array binding signal (z-score) [12]: -0.192
- glycan array binding signal (z-score) [13]: -0.221
- glycan array binding signal (z-score) [14]: 0.59
- glycan array binding signal (z-score) [15]: -0.336
- glycan array binding signal (z-score) [16]: -0.411
- glycan array binding signal (z-score) [17]: -0.425
- glycan array binding signal (z-score) [18]: -0.726
- glycan array binding signal (z-score) [19]: 0.047
- glycan array binding signal (z-score) [20]: 0.358
- glycan array binding signal (z-score) [21]: -0.065
- glycan array binding signal (z-score) [22]: 1.45
- glycan array binding signal (z-score) [23]: -0.36
- glycan array binding signal (z-score) [24]: -0.662
- glycan array binding signal (z-score) [25]: -0.367
- glycan array binding signal (z-score) [26]: 0.987
- glycan array binding signal (z-score) [27]: 0.543
- glycan array binding signal (z-score) [28]: -0.086
- glycan array binding signal (z-score) [29]: 0.246
- glycan array binding signal (z-score) [30]: -0.253
- glycan array binding signal (z-score) [31]: -0.495
- glycan array binding signal (z-score) [32]: -0.047
- glycan array binding signal (z-score) [33]: -0.276
- glycan array binding signal (z-score) [34]: 0.464
- glycan array binding signal (z-score) [35]: -0.012
- glycan array binding signal (z-score) [36]: -0.142
- glycan array binding signal (z-score) [37]: 0.941
- glycan array binding signal (z-score) [38]: -0.415
- glycan array binding signal (z-score) [39]: 0.612
- glycan array binding signal (z-score) [40]: 0.405
- glycan array binding signal (z-score) [41]: 0.991
- glycan array binding signal (z-score) [42]: 0.014
- glycan array binding signal (z-score) [43]: 0.066
- glycan array binding signal (z-score) [44]: 0.29
- glycan array binding signal (z-score) [45]: -0.321
- glycan array binding signal (z-score) [46]: 0.736
- glycan array binding signal (z-score) [47]: 0.388
- glycan array binding signal (z-score) [48]: -0.365
- glycan array binding signal (z-score) [49]: -0.398
- glycan array binding signal (z-score) [50]: -0.355
- glycan array binding signal (z-score) [51]: -0.107
- glycan array binding signal (z-score) [52]: -0.435
- glycan array binding signal (z-score) [53]: -0.652
- glycan array binding signal (z-score) [54]: -0.301
- glycan array binding signal (z-score) [55]: -0.288
- glycan array binding signal (z-score) [56]: 0.736
- glycan array binding signal (z-score) [57]: -0.095
- glycan array binding signal (z-score) [58]: -0.555
- glycan array binding signal (z-score) [59]: -0.01
- glycan array binding signal (z-score) [60]: -0.439
